# Hit rate of the full screen: of about 1,600 compounds, about 650 (41%) were called active. So high a share suggests a set chosen from earlier hits. This list was built around the results that the source calls inconclusive (neither active nor inactive); the mix of calls is not that of the screen. Calls follow the shape of the dose curve; as a rule, active = well fitted inhibition curve with a large enough effect; inconclusive = small, poorly fitted or top-dose-only effect; inactive = no such curve, though single readings can be large or run the other way. No potency is given beside an inconclusive call; the fits are too rough.
# Experiment: qHTS for Inhibitors of TGF-b: CCL64 Cells Orthogonal Assay for Cherry Picks; also: nearly all actives have a fitted effect of over 65% in size;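 as to activity, negative = inhibition: 0% = stimulated DMSO wells and full inhibition = unstimulated wells without TGF-beta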
# Conditions: CCL64 CAGA-GFP reporter, TGF-b stimulated, GFP fluorescence, 18 h; activity, negative = inhibition: at 46.1 µM (top of the series)
# Method in brief: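 CCL64 cells carrying a CAGA-GFP reporter (1000/well, DMEM with 1% FBS) were pre-incubated 2 h at 37 degrees C, given compound, then stimulated with 500 pg/mL TGF-beta for 18 h. Per-cell GFP fluorescence was summed per well.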
# Potency is read from the fitted curve at half-maximal effect; tags tell the direction and shape of the fitted curve.
SMILES,Potency,"activity, negative = inhibition"
COc1ccc(OC)c2sc(NC(=O)CCS(=O)(=O)c3ccccc3)nc12,active: 4.61 µM,
CCSc1nnc(NC(=O)Nc2cccc(C)c2)s1,"inconclusive [inhibitor, single point]",
Cc1cccc(C)c1N(CC(=O)Nc1cc(Cl)ccc1Oc1ccccc1)S(C)(=O)=O,inactive,
Cc1cccc(CN2C(=O)NC(c3ccccc3)(c3ccccc3)C2=O)c1,"inconclusive [inhibitor, single point]",
O=[N+]([O-])c1c(Nc2cccc(O)c2)cc(Cl)c2nonc12,active: 2.91 µM,
CCOc1cc(/C=C2\COc3ccccc3C2=O)cc(Br)c1OCC(=O)N(C)C,active: 14.6 µM,
Cc1cc(C)nc(/N=C(\N)Nc2ccc(CC(=O)OC(C)C)cc2)n1,"inconclusive [inhibitor, partial curve]",
O=C(/C(=N\Nc1ccc([N+](=O)[O-])cc1)Sc1nnnn1-c1ccccc1)c1ccccc1,active: 20.6 µM,
CC(C)C[C@H]1CNC(=S)N1C[C@H]1CCCN1C[C@H](CC(C)C)N1C[C@H](Cc2ccc(O)cc2)N(CC2CCCCCC2)C1=S,"inconclusive [inhibitor, single point]",
CCOc1ccc(NCc2nc3ccccc3n2CCOc2ccccc2)cc1,inactive,
CCS(=O)(=O)c1ncc(Cl)c(C(=O)Nc2ccc(S(=O)(=O)N3CCCC(C)C3)cc2)n1 (stereo not given),active: 2.59 µM,
c1ccc2sc(C3CCN(Cc4nnnn4Cc4ccc5c(c4)OCO5)CC3)nc2c1,inactive,
COc1ccc(NC(=O)CCCSc2nc(-c3ccco3)cc(C(F)(F)F)n2)cc1OC,inactive,
COc1ccc2[nH]c3c(c2c1)CCN1C(=O)C(CC(=O)NCCC2=CCCCC2)C[C@H](C(=O)N(C(C)C)C(C)C)[C@@]31C (stereo not given in full),"inconclusive [inhibitor, single point]",
Cc1ccc(-c2ccc3c(c2)O[C@H](CN(C)C(=O)Nc2ccc(C(F)(F)F)cc2)[C@H](C)CN([C@H](C)CO)S3(=O)=O)cc1,"inconclusive [inhibitor, single point]",
FC(F)(F)c1ccccc1Cc1c(-c2ccccc2)nc2ccc(Cl)cn12,inactive,
CC(C)C[C@@H](CN1CCC[C@@H]1CN1C(=S)NC[C@@H]1Cc1ccc(O)cc1)N1C[C@H](Cc2ccccc2)N(CCc2ccccc2)C1=S,"inconclusive [inhibitor, partial curve, poor fit]",
CCOc1ccc(CN2CCN(C(=O)c3cccc4ccccc34)CC2)cc1,inactive,
CCCCNc1c(-c2ccc(OC)c(SC3CCCCC3)c2)nc2cc(C)ccn12,active: 16.4 µM,
O=C(N/N=C/c1ccc2c(c1)OCO2)c1cc(-c2ccccc2Cl)nc2ccccc12,inactive,
CCSc1nsc(NC(=O)Nc2cccc(F)c2)n1,"inconclusive [inhibitor, full curve, poor fit]",
O=C(c1ccc(Br)cc1)N(Cc1nc2ccccc2c(=O)[nH]1)C1CCCC1,inactive,
Cc1ccc(C)c(S(=O)(=O)Nc2ccccc2C(=O)Nc2cc(C)on2)c1,"inconclusive [inhibitor, single point]",
O=C(CSC1=NCCS1)Nc1ccnc2ccccc12,inactive,

SMILES,Potency,"activity, negative = inhibition"
CC(=O)c1ccc2c(c1)N(Cc1ccc3ccccc3c1)C(=O)C(C)S2 (stereo not given),inactive,
Cc1ccc(NC(=O)C2(c3ccc([N+](=O)[O-])cc3)CCCC2)cc1,inactive,
O=C(c1ccc(Cl)cc1)c1cc([N+](=O)[O-])ccc1N1CCOCC1,"inconclusive [inhibitor, partial curve, poor fit]",
Cc1ccc(S(=O)(=O)Nc2ccc3c(c2)C(=O)N([C@H](C)CO)C[C@H](C)[C@@H](CN(C)Cc2ccc(-c4ccccc4)cc2)O3)cc1,active: 20.6 µM,
C(=C\c1ccccc1)/CN1CCN(C(CCc2ccccc2)c2nnnn2C2CCCC2)CC1 (stereo not given),"inconclusive [inhibitor, single point]",
CC(C)C[C@H]1CNC(=S)N1CC1CCCN1C[C@H](CC(C)C)N1C[C@H](Cc2ccc(O)cc2)N(CC2CCCCC2)C1=S (stereo not given in full),"inconclusive [inhibitor, single point]",
O[C@@H]1[C@@H](O)C=C2CCN3Cc4cc5c(cc4[C@H]1C23)OCO5 (stereo not given in full),active: 1.3 µM,
Cc1ccc(OCC(=O)N/N=C\c2cn(Cc3ccccc3)c3ccccc23)cc1C,inactive,
O=C(CN1CCN(C(=O)C2CCN(C(=O)/C=C/c3ccccc3)CC2)CC1)Nc1ccc(F)cc1,inactive,
CCc1ccccc1N1CCN(S(=O)(=O)c2cc(OC)ccc2OC)CC1,"inconclusive [inhibitor, single point]",
COc1ccc([C@H]2CC(=O)C=C(c3cccc(Br)c3)C2)cc1OC,"inconclusive [inhibitor, single point]",
CC(=O)N1c2ccc(S(=O)(=O)N3CCC(C(=O)Nc4cccc(C(F)(F)F)c4)CC3)cc2CC1C (stereo not given),inactive,
CCCCC(CC)C(=O)Nc1ncc([N+](=O)[O-])s1 (stereo not given),"inconclusive [inhibitor, single point]",
O=C(Nc1cccnc1)c1ccc([N+](=O)[O-])s1,"inconclusive [inhibitor, single point]",
COc1ccc2nc(N3CCN(C(=O)c4ccc([N+](=O)[O-])o4)CC3)sc2c1,inactive,
O=C(Nc1nc2cc3c(cc2s1)OCCO3)c1ccc([N+](=O)[O-])o1,,inconclusive: -19.4% [inhibitor]
CC1=C(C(=O)N(C(C)C)C(C)C)CC(CC(=O)NCCc2ccccn2)C(=O)N1Cc1ccc(C(C)(C)C)cc1 (stereo not given),"inconclusive [inhibitor, single point]",
O=C(C1=C[C@@H](c2ccc(C(F)(F)F)cc2)C[C@@H](OCc2ccc(CO)cc2)O1)N1CCN(Cc2ccccc2)CC1,"inconclusive [inhibitor, single point]",
COc1cccc(NC(=O)C(NCCC(C)C)c2ccccc2)c1 (stereo not given),inactive,
Cc1ccc(NC(=O)c2ccc(Nc3c([N+](=O)[O-])cc([N+](=O)[O-])cc3[N+](=O)[O-])cc2)cc1,active: 6.51 µM,
CCOC(=O)C1=C[C@@H](C(C)(C)C)N(S(=O)(=O)c2ccc([N+](=O)[O-])cc2)[C@H]1c1ccccc1,"inconclusive [inhibitor, single point]",
OCCCNc1c2ccccc2nc2ccccc12,"inconclusive [inhibitor, single point]",
O=S(=O)(/C(=C/c1ccc(C(F)(F)F)cc1)c1nc2ccccc2[nH]1)c1ccccc1,active: 1.84 µM,
O=C(N/N=C/c1cc(Cl)ccc1O)c1ccccc1Br,"inconclusive [inhibitor, full curve, poor fit]",

SMILES,Potency,"activity, negative = inhibition"
CCCS(=O)(=O)c1ccc(COC(=O)c2ccc(NC(C)=O)cc2)cc1,inactive,
CC1CCCN(S(=O)(=O)c2ccc(S(=O)(=O)NC(C)c3cccs3)cc2)C1 (stereo not given),inactive,
COc1ccc2c(c1)/C(=C\c1cccc(/C=C3/C(=O)Nc4ccc(OC)cc43)n1)C(=O)N2,active: 1.46 µM,
CCO[C@@H]1OC(C(=O)NCc2ccccc2)=C[C@H](c2ccc(C(F)(F)F)cc2)[C@H]1CCCO,active: 20.6 µM,
CCO[C@@H]1OC(C(=O)NCc2ccccc2)=C[C@H](c2ccc(Br)cc2)[C@H]1CCCO,"inconclusive [inhibitor, single point]",
COc1ccc(C)cc1S(=O)(=O)N1CCN(S(=O)(=O)c2cc(C(=O)O)ccc2C)CC1,"inconclusive [inhibitor, partial curve]",
O=C(Nc1ccc([N+](=O)[O-])cc1)Nc1cnccn1,"inconclusive [inhibitor, single point]",
Cc1onc(-c2ccccc2Cl)c1C(=O)Nc1cccc(-c2cn3cccnc3n2)c1,inactive,
COc1cc(C(=O)Oc2ccccc2/C=N/NC(=O)c2ccc(C)cc2)cc(OC)c1OC,inactive,
Cc1cccc(N2CCN(CC(=O)NCC3CCCCC3)CC2)c1C,"inconclusive [inhibitor, single point]",
O=[N+]([O-])c1ccc(N/N=C/c2cccnc2)cc1,inactive,
CCSc1ccc([C@@H]2[C@@H]3C(=O)N(CC)C(=O)[C@@H]3[C@]3(C(=O)OC)CCCN23)cc1,inactive,
COc1ccccc1Cc1c(-c2ccco2)nc2ccc(C)cn12,"inconclusive [inhibitor, single point]",
CN(C)CCN(C)C1CN(Cc2ccc(F)cc2)S(=O)(=O)C1 (stereo not given),inactive,
Cc1ccc(CN=C(N)Nc2nc(C)cc(C)n2)cc1,"inconclusive [inhibitor, single point]",
CCn1c2ccccc2c2cc(NC(=O)c3cc(OC)c(OC)c(OC)c3)ccc21,active: 1.3 µM,
NC(=S)NN=Cc1c[nH]c2nccnc12,inactive,
O=C(Nc1cc(S(=O)(=O)N2CCCCC2)ccc1O)c1ccccc1NS(=O)(=O)c1ccc(F)cc1,"inconclusive [inhibitor, single point]",
CC(OC(=O)Cc1ccc(F)cc1)C(=O)NCc1ccc2c(c1)OCO2 (stereo not given),inactive,
COc1cccc(CN2CCC2(C)C(=O)Nc2cccc3cccnc23)c1F (stereo not given),"inconclusive [inhibitor, single point]",
c1ccc(Sc2ncnc3ccccc23)cc1,"inconclusive [inhibitor, single point]",
CCOC1=CC2=C(C(=O)C(Cl)=CC2=O)[C@@H]2CN(S(=O)(=O)c3ccc(C)cc3)[C@@H](c3ccccc3)[C@H]12,active: 5.17 µM,

# Source: PubChem BioAssay AID720536 (National Center for Advancing Translational Sciences (NCATS), 2013)
